Experimental data reported in ChEMBL document CHEMBL4888484, “Replenishing the malaria drug discovery pipeline: Screening and hit evaluation of the MMV Hit Generation Library 1 (HGL1) against asexual blood stage Plasmodium falciparum ,using a nano luciferase reporter read-out” (2022).
Hit rate of the full screen: of about 150,000 compounds, about 540 (0.36%) showed an effect of 50% or more. This is one part of the list.

Test system: Plasmodium falciparum
Experiment: Primary screen in NF54 nanoGlo assay, in single point, at 2uM, 72h; a lower Z score goes with more inhibition
Assay type: functional, Erythrocyte
Conditions: timepoint 72 hour

Structure (SMILES) | % Inhibition [%] | Z score
CCc1nc2cc(N3CCC(C(=O)N[C@@H](C)CC)CC3)cnc2nc1CC | -9 | 1.42
CC(C)Cn1nnc2ccc(NC(=O)c3cccnc3)cc2c1=O | 16 | -2.08
CN1CC(=O)N(CC(=O)N2C[C@H](c3ccccc3)C3(CCC3)C2)C1=O | -3 | 0.48
CC(=O)NCCNC(=O)Nc1ccccc1C1CC1 | -6 | 0.88
COc1ccc(OCc2cc(C(=O)NCc3noc(C)n3)n[nH]2)c(Cl)c1 | -1 | 0.1
CO[C@@](C)(CNC(=O)Cc1ccsc1)c1cccc(Cl)c1 | 21 | -2.62
C[C@H](NC(=O)c1cc2n(n1)CCCN(Cc1ccc(F)cc1)C2=O)C(=O)NCCN1CCCCC1 | -2 | 0.38
Cc1cc2c(cc1C)N[C@@H](CC(=O)NC1CCCCC1)C(=O)N2 | 16 | -2.07
Cc1ccc2c(c1)c1c(n2CCc2ccncc2)CCCN(C)C1 | 4 | -0.46
Cc1c[nH]c(CNC(=O)c2ccc3c(c2)n(CC2CC2)c(=O)n3C2CCCCC2)n1 | -8 | 0.83
C[C@@H](CO)NC(=O)Nc1ccn(-c2nccs2)n1 | 8 | -0.97
CC(=O)N1CCN(c2nc(C3CC3)nc(C)c2Cc2ccccc2F)CC1 | -16 | 1.49
Cn1cc(CNc2cccc(-c3ccc4c(c3)OCCO4)n2)cn1 | -1 | 0.08
C[C@H]1CN(C(=O)CS(=O)(=O)c2ccc(F)cc2F)CCO1 | 0 | 0.06
O=C(NCCOc1ccccc1)NC[C@H](O)c1ccoc1 | -6 | 0.78
COc1ccccc1C(=O)N[C@@H]1c2ccccc2C2(CCNCC2)[C@H]1O | 3 | -0.55
COC(=O)c1ccc(-c2noc(C3CN(C4CCOCC4)C3)n2)cc1 | 24 | -2.71
Cc1cccc(CN2CC(=O)N3CCN(C(=O)C4CCCC4)CC[C@H]3C2=O)c1 | -22 | 2.98
CC(C)N1CCC(NCc2c[nH]nc2-c2cccs2)CC1 | -8 | 1.66
CC(C)CN(C)C(=O)c1ccc(-c2ccc3[nH]c(=O)[nH]c(=O)c3c2)cc1 | 0 | -0.01
O=C1C[C@@H]2CCN(C3CCOCC3)C[C@@H]2CCOc2ccc(-c3cccnc3)cc2N1 | 13 | -2.05
Cc1nnc2c(S(=O)(=O)N(CC#N)c3cc(F)cc(F)c3)cccn12 | -14 | 1.78
Cc1oc(-c2ccccc2NC(=O)CC2CCCC2)nc1CNC(=O)[C@@H]1CCCO1 | 16 | -2.08
